Measured values taken from patent US9956244B2, “Biomarker Hsp90 for predicting effect of a c-Met inhibitor” (Samsung Electronics Co., Ltd., priority 2014, dated 2018).

Key:
Conditions in all cases: rank among the four antibodies selected in Reference Example 1.7
Akt phosphorylation = assay: Akt phosphorylation; format: cell-based
c-Met [1] = biological target: T1, c-Met (Homo sapiens, UniProt P08581); assay: c-Met degradation; format: cell-based
c-Met [2] = biological target: T1, c-Met; assay: Affinity for c-Met; format: binding

T1 sequence (P08581 25-1390): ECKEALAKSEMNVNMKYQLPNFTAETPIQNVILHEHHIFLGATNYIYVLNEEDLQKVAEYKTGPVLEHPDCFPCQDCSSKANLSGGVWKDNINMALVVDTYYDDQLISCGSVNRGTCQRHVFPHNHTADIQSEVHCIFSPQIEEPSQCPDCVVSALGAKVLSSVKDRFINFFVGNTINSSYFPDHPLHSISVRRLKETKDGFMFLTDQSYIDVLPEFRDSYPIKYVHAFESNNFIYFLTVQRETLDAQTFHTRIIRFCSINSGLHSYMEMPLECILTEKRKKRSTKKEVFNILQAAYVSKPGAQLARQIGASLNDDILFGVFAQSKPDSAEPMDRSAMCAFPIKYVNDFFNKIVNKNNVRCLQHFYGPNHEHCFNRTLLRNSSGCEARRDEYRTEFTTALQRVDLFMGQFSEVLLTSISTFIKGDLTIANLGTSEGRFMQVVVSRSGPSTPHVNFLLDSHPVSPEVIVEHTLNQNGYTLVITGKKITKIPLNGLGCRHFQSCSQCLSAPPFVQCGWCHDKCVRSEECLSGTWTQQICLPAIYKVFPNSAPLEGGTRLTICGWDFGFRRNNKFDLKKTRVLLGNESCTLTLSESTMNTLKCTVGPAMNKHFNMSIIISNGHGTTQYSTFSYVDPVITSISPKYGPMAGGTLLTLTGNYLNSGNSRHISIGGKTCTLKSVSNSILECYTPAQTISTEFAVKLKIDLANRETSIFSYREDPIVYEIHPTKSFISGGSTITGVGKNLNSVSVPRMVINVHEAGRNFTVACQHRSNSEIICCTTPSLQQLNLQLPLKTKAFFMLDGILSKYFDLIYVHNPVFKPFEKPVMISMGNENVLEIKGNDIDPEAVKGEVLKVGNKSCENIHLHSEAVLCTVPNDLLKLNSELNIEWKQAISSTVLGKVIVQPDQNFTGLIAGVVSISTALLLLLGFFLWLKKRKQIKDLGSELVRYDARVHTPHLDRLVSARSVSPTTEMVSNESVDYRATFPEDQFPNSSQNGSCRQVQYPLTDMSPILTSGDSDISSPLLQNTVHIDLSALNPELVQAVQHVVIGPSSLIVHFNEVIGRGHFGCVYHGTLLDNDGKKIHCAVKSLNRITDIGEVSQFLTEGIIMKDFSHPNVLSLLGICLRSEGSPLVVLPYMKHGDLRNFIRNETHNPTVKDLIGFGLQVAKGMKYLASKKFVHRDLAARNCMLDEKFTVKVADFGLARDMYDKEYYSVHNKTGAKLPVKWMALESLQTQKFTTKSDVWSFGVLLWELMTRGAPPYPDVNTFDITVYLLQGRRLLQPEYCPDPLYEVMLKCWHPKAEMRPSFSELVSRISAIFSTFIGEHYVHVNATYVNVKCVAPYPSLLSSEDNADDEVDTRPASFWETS

B1: huAbF46-H4-A1: affinity-matured anti-c-Met antibody, L3-1 origin (antibody)
heavy: EVQLVESGGGLVQPGGSLRLSCAASGFTFTDYYMSWVRQAPGKGLEWLGFIRNKANGYTTEYSASVKGRFTISRDNSKNTLYLQMNSLRAEDTAVYYCARDNWFAYWGQGTLVTVSSASTKGPSVFPLAPSSKSTSGGTAALGCLVKDYFPEPVTVSWNSGALTSGVHTFPAVLQSSGLYSLSSVVTVPSSSLGTQTYICNVNHKPSNTKVDKKVEPKSCDCH[not shown - human IgG1 Fc]
light: DIQMTQSPSSLSASVGDRVTITCKSSQSLLASGNQNNYLAWHQQKPGKAPKMLIIWASTRVSGVPSRFSGSGSGTDFTLTISSLQPEDFATYYCQQSYSRPYTFGQGTKVEIKRTVAAPSVFIFPPSDEQLKSGTASVVCLLNNFYPREAKVQWKVDNALQSGNSQESVTEQDSKDSTYSLSSTLTLSKADYEKHKVYACEVTHQGLSSPVTKSFNRGEC
Akt phosphorylation (Akt phosphorylation): lowest
c-Met degradation degree (c-Met [1]): lowest
affinity for c-Met (c-Met [2]): highest
